Experimental data taken from patent US4990497A, “Antifungal antibiotics” (priority 1989, dated 1991).

Tests used:
[1] = test system: Aspergillus fumigatus IAM 2034; test: In vivo antifungal activity, Aspergillus fumigatus intravenous infection in mice; parameters: species or system mice (male ICR); settings: im b.i.d. on days 0 and 1, day 20, challenge 20x median lethal dose
[2] = test system: Cryptococcus neoformans IAM 4514; test: In vivo antifungal activity, Cryptococcus neoformans intravenous infection in mice; settings: im b.i.d. on days 0 and 1, day 20
[3] = test system: Candida albicans A9540; test: In vivo antifungal activity, Candida albicans intravenous infection in mice; parameters: species or system mice (male ICR); settings: im b.i.d. on days 0 and 1, day 20; for ED50: Candida albicans, A9540, 480 h, read-out: PD50
Protocol: The methyl and ethyl esters of BU-3608 were also evaluated against C. albicans A9540 infections in mice using the protocol described above. […] It is postulated that these esters are hydrolyzed in vivo to provide the active parent compound.

[4] = dose 3.1 mg/kg/inj., challenge 20x (BU-3608) or 10x (B, C) median lethal dose
[5] = dose 6.3 mg/kg/inj., challenge 20x (BU-3608) or 10x (B, C) median lethal dose
[6] = dose 12.5 mg/kg/inj., challenge 20x (BU-3608) or 10x (B, C) median lethal dose
[7] = dose 25 mg/kg/inj., challenge 20x (BU-3608) or 10x (B, C) median lethal dose
[8] = challenge 20x (BU-3608) or 10x (B, C) median lethal dose

Row | Compound | Number of survivors/tested [2, 4] | Number of survivors/tested [2, 5] | Number of survivors/tested [2, 6] | Number of survivors/tested [2, 7] | ED50 [3, 8] [mg/kg] | Number of survivors/tested [3, 4] | Number of survivors/tested [3, 5] | Number of survivors/tested [3, 6] | Number of survivors/tested [3, 7] | further results
1 | CN[C@@H]1[C@H](O[C@@H]2OC[C@@H](O)[C@H](O)[C@H]2O)[C@@H](O)[C@H](OC2c3cc(C)c(C(=O)N[C@H](C)C(=O)O)c(O)c3-c3c(cc4c(c3O)C(=O)c3cc(OC)cc(O)c3C4=O)C2O)O[C@@H]1C (stereo partly drawn) [BU-3608] | 2/5 | 5/5 | 5/5 | 5/5 | 11 | 1/5 | 0/5 | 3/5 | 4/5 | ED50 ([1]; Aspergillus fumigatus, IAM2034, 480 h, read-out: PD50): 5.7 mg/kg; Number of survivors/tested ([1]; dose 1.6 mg/kg/inj.): 0/5; Number of survivors/tested ([1]; dose 3.1 mg/kg/inj.): 0/5; Number of survivors/tested ([1]; dose 6.3 mg/kg/inj.): 3/5; Number of survivors/tested ([1]; dose 12.5 mg/kg/inj.): 3/5; Number of survivors/tested ([1]; dose 25 mg/kg/inj.): 4/5; Number of survivors/tested ([2]; dose 1.6 mg/kg/inj., challenge 20x median lethal dose): 1/5; Number of survivors/tested ([3]; dose 50 mg/kg/inj., challenge 20x median lethal dose): 5/5
2 | COc1cc(O)c2c(c1)C(=O)c1c(cc3c(c1O)-c1c(cc(C)c(C(=O)N[C@H](C)C(=O)O)c1O)C(O[C@@H]1O[C@H](C)[C@H](N)[C@H](O[C@@H]4OC[C@@H](O)[C@H](O)[C@H]4O)[C@H]1O)C3O)C2=O (stereo partly drawn) |  |  |  |  | 16 |  |  |  |  | Number of survivors/tested ([3]; dose 6.9 mg/kg/inj., challenge 10x median lethal dose): 0/5; Number of survivors/tested ([3]; dose 14 mg/kg/inj., challenge 10x median lethal dose): 2/5; Number of survivors/tested ([3]; dose 28 mg/kg/inj., challenge 10x median lethal dose): 5/5; Number of survivors/tested ([3]; dose 55 mg/kg/inj., challenge 10x median lethal dose): 5/5
3 | CN[C@@H]1[C@H](O)[C@@H](O)[C@H](OC2c3cc(C)c(C(=O)N[C@H](C)C(=O)O)c(O)c3-c3c(cc4c(c3O)C(=O)c3cc(OC)cc(O)c3C4=O)C2O)O[C@@H]1C (stereo partly drawn) [BU-3608 B] | 1/5 | 0/5 | 3/5 | 5/5 |  | 0/5 | 1/5 | 0/5 | 3/5 | 
